Screen size: about 50,000 compounds; about 800 (1.6%) showed an effect of 50% or more. Some of the results follow.
What follows are compounds tested against Bcl-2-like protein 10 (Homo sapiens) (UniProt Q9HD36) (assay: TR3 peptide-Bcl-B binding displacers, biochemical primary FP assay, phenotype converters (AID 1240;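 further: 0% = Bcl-B with tracer peptide and DMSO and 100% = tracer peptide lacking Bcl-B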)). Details: GST-Bcl-B / FITC-TR3 peptide fluorescence polarization; stronger effect = higher value; compound at 3.75 mg/L.
Chain of UniProt Q9HD36 (Q9HD36 whole entry, looked up): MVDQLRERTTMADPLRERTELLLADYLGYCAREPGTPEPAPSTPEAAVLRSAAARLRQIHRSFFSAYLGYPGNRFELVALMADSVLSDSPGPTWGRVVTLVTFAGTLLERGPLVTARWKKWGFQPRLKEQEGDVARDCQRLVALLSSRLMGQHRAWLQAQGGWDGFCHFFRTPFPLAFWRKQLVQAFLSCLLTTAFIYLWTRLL

Row | SMILES | displacement
1 | COC(=O)C1=C(C)NC(C)=C(C(=O)OC)C1c1ccc(C)o1 | 0.5%
2 | O=C(CSc1nc2ccccc2s1)Nc1cc2c(cc1Br)OCCO2 | 1.9%
3 | O=C(/C=C/c1ccccc1Cl)c1c(-c2ccccc2)c2cc(Br)ccc2[nH]c1=O | -1.5%
4 | O=C1C2ON(c3ccccc3)C(c3ccc(F)cc3)C2C(=O)N1c1ccc(N2CCOCC2)cc1 (centres undefined) | -0.6%
5 | CCOc1ccc(NC(=O)CN(Cc2ccccc2)S(=O)(=O)c2ccccc2)cc1 | -3.3%
6 | O=C1c2cccc3c(N4CCNCC4)ccc(c23)C(=O)N1c1ccc(Cl)cc1 | 101%
7 | O=C1c2ccccc2C(=O)c2c1cc(Nc1ccccc1)c1nsnc21 | -14.8%
8 | Cc1cc([N+](=O)[O-])ccc1-c1ccc(/C=C2/C(=O)NC(=S)N(c3ccc(Cl)cc3)C2=O)o1 | -3.9%
9 | S=C(NCCOc1cccc2ccccc12)Nc1cccc2ccccc12 | 12%
10 | O=C1CC(N2CCN(c3ccccn3)CC2)C(=O)N1c1ccc(Br)cc1 (centres undefined) | 10.9%
11 | CC1=C(c2ccccc2)[N+](=O)C(C)(C)N1[O-] | 7.8%
12 | CC1CCCCN1C(=O)c1cc2nc(-c3cccs3)cc(C(F)(F)F)n2n1 (centres undefined) | 18.3%
13 | Cc1cccc(NC(=O)c2ccc(NC(=O)COc3ccc(Cl)cc3Cl)cc2)c1 | -11.4%
14 | Cc1ccc(-n2nc3cc(C)c(NC(=O)COc4ccc(Cl)cc4)cc3n2)cc1 | 4.5%
15 | Cc1ccc(N(CC(N)=O)S(=O)(=O)c2ccccc2)c(C)c1 | 8.3%
16 | C/C=C/COC(=O)C1=C(C)NC(=O)NC1c1cccc(Br)c1 (centres undefined) | 3.2%
17 | CCOC(=O)c1sc2nc(NC(=O)c3ccc([N+](=O)[O-])cc3)sc(=O)c2c1C | 4.4%
18 | COc1ccccc1NC(=O)Nc1cccnc1 | -8.5%
19 | COCCOC(=O)c1ccc(NC(=O)c2ccc(Cl)cc2)cc1 | 10.6%
20 | O=C(O)CN1C(=O)/C(=C/c2ccc(OCc3ccc(Cl)cc3Cl)cc2)SC1=S | 22.2%
21 | O=C(Cc1ccc(F)cc1F)Nc1ccc(Cl)cc1Cl | 6.9%
22 | CCc1cc2c(C)cc(=O)oc2cc1OCC(C)=O | -5.2%
23 | Cc1cnn(-c2cc(N/N=C/c3ccc(O)cc3)ncn2)c1 | -4.5%

Row | SMILES | displacement
24 | CC(C)c1ccc(N(CC(N)=O)S(=O)(=O)c2ccccc2)cc1 | -5.2%
25 | CCOc1ccccc1C1Nc2ccccc2NC2=C1C(=O)CC(c1ccc(OC)c(OC)c1)C2 (centres undefined) | 11.3%
26 | O=C(/C=C/c1ccc(Cl)cc1Cl)Nc1c(F)c(F)c(F)c(F)c1F | -9.9%
27 | O=C(NOC(=O)c1ccccc1I)c1ccc(Cl)cc1 | 2%
28 | CCN(CC)C(=O)c1ccccc1NC(=O)c1ccccc1 | 21.3%
29 | Cc1ccc(C(=O)Nc2ccc(Cl)cc2)cc1[N+](=O)[O-] | 11%
30 | CCc1ccc(C(C)NC(=O)Cc2ccccc2)cc1 (centres undefined) | 3.7%
31 | CCOC(=O)C1=C(O)/C(=C/c2cccc([N+](=O)[O-])c2)SC1=Nc1cccc(Cl)c1 | -10.2%
32 | O=C(Cc1cccs1)N1CCN(c2cccc(Cl)c2)CC1 | 9.2%
33 | Cc1ccc(-c2ccc(OCC(=O)Nc3ccc(S(=O)(=O)Nc4onc(C)c4C)cc3)cc2)cc1 | -1.3%
34 | CC(=O)CC(=O)Nc1ccc2c(c1)OCO2 | -8.9%
35 | NS(=O)(=O)c1ccc(-c2ccc(/C=C3\Sc4ccccc4C3=O)o2)cc1 | -71.8%
36 | Cc1cc(/C=N/NC(N)=S)c(C)n1-c1ccc(Br)cc1 | -21.7%
37 | C=CCn1c(/N=C/c2ccc3c(c2)OCO3)nc2ccccc21 | 0%
38 | CN(C)c1ccc(/C=C/C(=O)c2ccc(Br)cc2)o1 | -16.1%
39 | Cc1ccc(-n2c(C)c([N+](=O)[O-])c3ccc(O)cc32)cc1 | 7.6%
40 | CC(=O)NC(C)C12CC3CC(CC(C3)C1)C2 (centres undefined) | 10.9%
41 | COc1ccc(C(=O)N2CCC(c3ccccc3)C2)cc1 (centres undefined) | 10%
42 | Cc1ccc(N(Cc2ccc(C(=O)Nc3cccc(Br)c3)cc2)S(C)(=O)=O)cc1C | 6.6%
43 | COc1cccc(OCCOc2cccc(/C=C3/SC(=S)NC3=O)c2)c1 | 3%
44 | COc1ccc(NCN2C(=O)C3C4C=CC(C4)C3C2=O)cc1 (centres undefined) | 2.3%
45 | CC(=O)Nc1ccc(NC(=O)c2cc(Cl)ccc2Cl)cc1 | 1.1%
46 | O=C1C2C3C=CC(C3)C2C(=O)N1CCc1ccccc1 (centres undefined) | 10.1%

Row | SMILES | displacement
47 | C=CCOc1ccc(/C=C/C(=O)c2ccc(Br)cc2)cc1 | 10%
48 | COc1ccc(-c2nc3ccccc3o2)cc1NC(=O)c1ccc(Br)o1 | 63%
49 | COc1ccc(OC)c(N/C(N)=N/c2nc(C(F)(F)F)cc(=O)[nH]2)c1 | -70%
50 | O=C(CCCN1C(=O)/C(=C\c2cccs2)SC1=S)Nc1ccc(F)c(Cl)c1 | 3.9%
51 | COC(=O)C1=C(C)N=c2s/c(=C/c3cc(Br)ccc3OC(C)=O)c(=O)n2C1c1ccc(OC(C)=O)cc1 (centres undefined) | 4.4%
52 | C=CCOC(=O)C1=C(C)NC(C)=C(C(=O)OCC=C)C1c1ccco1 | 7.5%
53 | COc1ccc(C2c3c(n[nH]c3C)CC(C)(O)C2C(C)=O)cc1OC (centres undefined) | -5.8%
54 | CC(=O)Nc1ccc(S(=O)(=O)NNC(=O)c2ccc(-c3ccccc3)cc2)cc1 | -3.8%
55 | COc1ccc(Cl)cc1C(=O)Nc1nc2ccc(Cl)cc2s1 | -3.9%
56 | O=C(c1ccc(Cl)cc1)N(c1ccc(Cl)cc1)C1C=CS(=O)(=O)C1 (centres undefined) | -2.9%
57 | OCCNC(=S)Nc1ccc2nc(-c3ccccc3)c(-c3ccccc3)nc2c1 | 35.9%
58 | CCOC(=O)C(Cc1c[nH]c2ccccc12)NC(=O)c1cc2ccccc2oc1=O (centres undefined) | 11.4%
59 | O=C(c1ccc([N+](=O)[O-])cc1)N1CCN(C2CCCC2)CC1 | -8.6%
60 | O=c1c2ccccc2nc(SCc2ccc([N+](=O)[O-])cc2)n1-c1ccccc1 | -12.1%
61 | O=C(COc1ccc(Cl)cc1)NNC(=O)Cc1cccc2ccccc12 | -8.3%
62 | CCc1cccc(C)c1NC1C=CS(=O)(=O)C1 (centres undefined) | 52.3%
63 | O=C(CCCOc1ccc(Cl)c(Cl)c1)Nc1cccc2ccccc12 | -2.7%
64 | COc1cc(/C=N/n2c(C)nnc2C)cc(OC)c1O | -5.2%
65 | CC(=O)NC1=NC(=O)/C(=C\c2cccc([N+](=O)[O-])c2)S1 | -42.2%
66 | COC(=O)C(C)Oc1cc2oc(=O)c3c(c2cc1Cl)CCC3 (centres undefined) | 7.8%
67 | O=C(O)CP(=O)(c1ccccc1)c1ccccc1 | -1.7%
68 | Cc1ccc(C(=O)N2CCC(Cc3ccccc3)CC2)o1 | 6.7%
69 | CCCCOC(=O)CCN1C(=O)/C(=C/c2ccc3c(c2)OCO3)SC1=S | 6.9%
